According to the supplement of paper PMC3334620:
Over roughly 33,000 sequences, “E-score (-0.5 to 0.5)” has its median near -0.013; the highest 2% begin near 0.3. Some of the results follow.

Each sequence was assayed against T1, Msn1 (UniProt P22148) (assay: PBM E-score (8-mer binding enrichment) (E-score (-0.5 to 0.5)); higher = stronger / more preferred TF binding; most listed sequences are background and not binding sites). Details: protein concentration: 200 nM; construct: GST-full length.
T1 sequence: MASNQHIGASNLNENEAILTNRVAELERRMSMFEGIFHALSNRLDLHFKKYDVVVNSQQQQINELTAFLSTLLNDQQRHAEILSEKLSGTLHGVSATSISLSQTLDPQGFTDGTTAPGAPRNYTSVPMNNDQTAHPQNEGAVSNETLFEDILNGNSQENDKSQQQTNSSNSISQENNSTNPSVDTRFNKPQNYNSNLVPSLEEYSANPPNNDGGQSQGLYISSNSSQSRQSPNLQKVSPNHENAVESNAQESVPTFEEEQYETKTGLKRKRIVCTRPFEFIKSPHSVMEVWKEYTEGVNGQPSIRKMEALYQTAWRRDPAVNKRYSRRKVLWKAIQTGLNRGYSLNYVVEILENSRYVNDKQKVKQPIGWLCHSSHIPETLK
In short: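 Universal all-10-mer Agilent arrays, double-stranded by primer extension on fresh or once-stripped slides, were probed with about 100-200 nM GST-tagged yeast transcription factors made by PURExpress. Fluorescent anti-GST detected bound protein, and masliner normalised the scans. E-scores from the Universal PBM Analysis Suite were given to each ungapped eight-base word pooled with its reverse complement.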

Sequence	PBM E-score
AGGAAGAT	0.0257
CCGTCGCG	-0.192
TCAGGCGA	-0.0372
ATTAGTGC	0.231
GCTGGCAA	0.186
AATAGGGA	-0.154
CACAGCGG	-0.121
GAACAATA	0.144
AGGAGTCG	-0.217
GCGACTGA	0.0324
GTGTTAGA	0.00427
AAATCTAG	-0.049
ATGCCAAC	0.0264
CAACGATA	0.123
CAGCACAG	0.00522
AGATCCGC	-0.0945
ATTATAAC	0.0372
CTGGGCCA	-0.246
CCATGCCC	-0.021
CCTGGATC	-0.0975
ATCTTCTC	-0.0883
CTGCGCAG	-0.0334

Sequence	PBM E-score
CTCACGCA	0.152
CGAACCTA	-0.201
ACTTGTTA	0.0301
ACCCGCAA	-0.169
CTTCGAAA	0.0685
AAGTGAGG	-0.128
ATGACTCA	0.0453
ACCGCTCC	-0.278
AACAGTCA	-0.106
ACAGTCAT	-0.111
AGTGGCAC	-0.158
CGGTAACC	-0.172
GTTCAAAC	0.0784
ATGAAGAG	-0.099
TAAAAGAA	0.186
TGGTAGAA	-0.0667
CAGGCGGG	-0.251
CCCTACCG	-0.256
CATACTGC	-0.16
CAAGAATA	0.116
ATCTACGC	0.0817
GATCCGTA	-0.147

Sequence	PBM E-score
CCTTGAGC	-0.0431
ATGGAAGG	-0.203
TGCACACA	0.0221
CTTCGATC	-0.0311
CATGGCCG	-0.133
CACAACGG	-0.0673
AAGAACAA	0.241
AAACAGGC	-0.0709
GGAGAGAA	-0.154
ATGGTACC	-0.149
AAGCCGTC	0.0517
GAACCTGC	-0.163
AGATTTAC	0.141
ACTGTCAT	0.0249
GATCTAGA	-0.0525
ACATCCAT	-0.0429
AACTAAGA	0.112
AGCCTCTG	-0.291
CCCAAAGA	0.084
CAGGTGTC	0.104
AACTGCTA	-0.115
GAAAGCGA	0.0605

Sequence	PBM E-score
ACACAATA	0.15
TACACGCA	-0.112
TAAGCCAA	-0.117
GACAGTGA	0.0705
TACGGACA	0.44
AGAATGTC	0.459
ATCTTGTA	0.0261
ATAAGTCC	0.422
ACCCAGAT	-0.113
CGGACGTC	0.102
GACGTGAC	-0.0407
GAGAACAC	-0.184
CGCCATAA	-0.0384
GAACCACA	0.113
TCGAAGCA	-0.0338
CGTCGCAC	-0.0819
ACGGGATG	-0.217
CCTGTTCC	-0.137
GGGCAGTA	0.0714
GGGTCACA	-0.159
